# Measured values taken from PubChem BioAssay AID924 (National Center for Advancing Translational Sciences (NCATS), 2007).
# Among all 130,000 compounds or so, about 1,200 (0.92%) were called active. Inconclusive results, whose numbers are uncertain, are shown with a selection of clear calls. Calls come from the whole dose curve; as a rule, active = well fitted cell-killing curve with a large enough effect; inconclusive = small, poorly fitted or top-dose-only effect; inactive = no such curve, though single readings can be large or run the other way. Potencies of inconclusive entries are doubtful fits and often do not repeat.
# Experiment: qHTS Screen for Compounds that Selectively Target Cancer Cells with p53 Mutations: Cytotoxicity of p53ts Cells at the Permissive Temperature; note: nearly all actives have a fitted effect of over 55% in size;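 for activity change, negative = cytotoxicity: 0% = DMSO and -100% = full killing by reference compound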
# Settings: H1299-p53A138V at 32C, ATP luminescence viability, 24 h; activity change, negative = cytotoxicity: at 46.1 µM (top of the series)
# Procedure, shortened: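 ATP-content luminescence (ATPlite) read-out after 24 h compound exposure at 32C in H1299-p53A138V cells (600/well). Tested up to 46 uM. Normalized to DMSO (0%) and 100 uM tamoxifen (100% killing); Hill-fit AC50.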
# Potency is the fitted concentration of half-maximal effect; tags give direction and shape of the fitted curve.
Compound,Potency,"activity change, negative = cytotoxicity"
COc1ccc(C(=O)Nc2ccccc2C(=O)NCCCn2ccnc2)cc1,"inconclusive: 20 µM [cytotoxic, single point]",
CN1CCN(C2=Cc3ccccc3Sc3cc(F)c(Cl)cc32)CC1,"inconclusive: 25.1 µM [cytotoxic, single point]",
Cc1ccc(NC(=O)N2CCc3ccccc32)cc1,active: 4.47 µM,
COc1ccc(NC(=O)CCc2c(C)nn(-c3ccc(N4CCCC4)nn3)c2C)cc1Cl,"inconclusive: 12.6 µM [cytotoxic, single point]",
O=C(CSc1nc2c([nH]c3ccccc32)c(=O)n1-c1ccccc1)Nc1cccc(C(F)(F)F)c1,,inactive: 2.88%
Cc1cc(CNC(=O)[C@@H]2C[C@H]2[C@@H](NP(=O)(c2ccccc2)c2ccccc2)c2ccccc2)nn1C,,inactive: 13%
CCOC(=O)c1cc2occc2n1CC(=O)N1CCOCC1,,inactive: 6.34%
COc1ccccc1-c1nc(CNC(=O)NC2CCCCC2)c(C)o1,,inactive: 0.637%
COc1cccc(NC(=O)CSc2cc(C)c3ccccc3n2)c1,"inconclusive: 10 µM [cytotoxic, partial curve]",
CC(=O)Oc1c(S(=O)(=O)c2ccc(C)cc2)c(C)nn1-c1ccccc1,,inactive: -7.98%
CS(=O)(=O)c1ccc2nc(NC(=O)c3cccs3)sc2c1,active: 2.51 µM,
CCOc1ccccc1NC(=O)c1ccc2oc(=O)c(S(=O)(=O)c3ccc(F)cc3)cc2c1,"inconclusive: 25.1 µM [cytotoxic, single point]",
O=C(Nc1ccc(CN2CCOCC2)cc1)c1ccccc1F,"inconclusive: 11.2 µM [cytotoxic, single point]",
Cc1ccccc1CCNC(=O)c1cc2ccccn2n1,"inconclusive: 12.6 µM [cytotoxic, partial curve]",
Cn1c(CNc2ccc(Cl)cc2)nc2ccccc21,"inconclusive: 31.6 µM [cytotoxic, single point]",
Cc1ccc(C(=O)Nc2ncc(Cc3ccccc3)s2)o1,"inconclusive: 12.6 µM [cytotoxic, partial curve]",
O=c1cc(-c2cccc(O)c2O)oc2ccccc12,"inconclusive: 12.6 µM [cytotoxic, full curve]",
CCOC(=O)c1sc(N)c(C#N)c1CSc1nc2ccc(OCC)cc2[nH]1,"inconclusive: 31.6 µM [cytotoxic, single point]",
C=Cc1ccc(Cn2c(C(=O)O)c(CNCc3cc(OC)ccc3OC)c3ccc(C)cc32)cc1,"inconclusive: 31.6 µM [cytotoxic, single point]",
CN(C(=O)c1ccccn1)c1nnc(-c2ccccn2)s1,"inconclusive: 10 µM [cytotoxic, single point]",
O=C(CSc1c2c(nc3ccc(Cl)cc13)CCCC2)N1CCCCC1,"inconclusive: 22.4 µM [cytotoxic, single point]",
C=CCNc1ncnc2c1cnn2-c1ccc(OC)cc1,"inconclusive: 12.6 µM [cytotoxic, partial curve]",
Oc1ccc(-c2nc3cnccn3c2Nc2ccc3c(c2)OCCO3)cc1,,inactive: 10.2%
O=C(Cn1c(=O)n(Cc2ccc(C(=O)NCc3ccccc3Cl)cc2)c(=O)c2ccccc21)Nc1ccc(F)cc1,,inactive: 5.81%

Compound,Potency,"activity change, negative = cytotoxicity"
CCOc1cc2[nH]c(=S)n(CCCOC)c(=O)c2cc1OCC,,inactive: 8.19%
CCOC(=O)c1[nH]c2ccccc2c1NC(=O)c1cc(Cl)ccc1Cl,"inconclusive: 25.1 µM [cytotoxic, single point]",
COCCn1c(-c2cc(OC)c(OC)c(OC)c2)nc2nc3ccccc3nc21,,inactive: 0.312%
Cc1cccc(NC(=O)CSc2nc3c(oc4ccccc43)c(=O)n2-c2ccccc2)c1,"inconclusive: 0.0794 µM [cytotoxic, full curve, poor fit]",
Cc1ccccc1CNC(=O)c1ccc(NC(=O)c2nsc3ccccc23)cc1,"inconclusive: 15.8 µM [cytotoxic, partial curve]",
COc1cc2[nH]c(=O)n(CCC(=O)N3CCN(c4cc(Cl)ccc4C)CC3)c(=O)c2cc1OC,"inconclusive: 31.6 µM [cytotoxic, single point]",
O=C(NCCCN1CCOCC1)c1ccc(-n2c(=O)c(=O)[nH]c3ccccc32)cc1,,inactive: 8.36%
CC(C)c1ccc(NS(=O)(=O)c2ccc3[nH]cc(C(=O)NC4CCCC4)c(=O)c3c2)cc1,"inconclusive: 14.1 µM [cytotoxic, single point]",
COc1ccc(C(CC(=O)Nc2ccc(F)c(Cl)c2)N2Cc3ccccc3C2=O)cc1OC (stereo unspecified),,inactive: 0.902%
CCN(CC)c1nc(-c2ccc(C(C)(C)C)cc2)nc2ccccc12,active: 12.6 µM,
O=C(CCC(=O)N1Cc2ccccc2Oc2ncccc21)Nc1ccc(Cl)cc1,,inactive: -5.77%
Cc1ccc(N(CC(=O)N2CC(=O)Nc3ccccc32)S(=O)(=O)c2ccc3c(c2)OCCO3)cc1,,inactive: 6.77%
CC(C)(C)c1ccc(-c2cc(N)n[nH]2)cc1,"inconclusive: 15.8 µM [cytotoxic, partial curve]",
Cc1nc2ccc(NC(=O)Cc3cccs3)cc2s1,active: 15.8 µM,
COc1ccc(NC(=O)c2ccc(OC)cc2)cc1,"inconclusive: 2.51 µM [cytotoxic, full curve]",
Cc1nc2sc(C(c3ccco3)N3CCC(Cc4ccccc4)CC3)c(O)n2n1 (stereo unspecified),"inconclusive: 12.6 µM [cytotoxic, partial curve]",
COC(=O)C(C#N)c1nc2ccccc2nc1N1CCCC1 (stereo unspecified),,inactive: 14.8%
CN(C)C(=O)c1ccc(-c2nc(Nc3ccc(F)cc3)c3ccccc3n2)cc1,"inconclusive: 12.6 µM [cytotoxic, partial curve]",
CCCOc1ccccc1C1CC(=O)Nc2cc3c(cc21)OCO3 (stereo unspecified),"inconclusive: 31.6 µM [cytotoxic, single point]",
O=S(=O)(O)c1ccc(N=Nc2ccccc2)cc1,,inactive: 1.83% [at 9.22 µM]
COc1ccccc1-c1cc(C(F)(F)F)nc(S(=O)(=O)CCCC(=O)N2CCOCC2)n1,"inconclusive: 31.6 µM [cytotoxic, single point]",
O=c1ccnc(SCc2ccc(Cl)cc2)[nH]1,,inactive: -8.06% [at 9.22 µM]
CCN(c1ncnc2c1cnn2-c1ccc(C)cc1)C1CCCCC1,"inconclusive: 12.6 µM [cytotoxic, single point]",
O=C(NCCO)c1ccc2[nH]c3c(c2c1)CCCC3,"inconclusive: 20 µM [cytotoxic, single point]",

Compound,Potency,"activity change, negative = cytotoxicity"
Cc1ccc(S(=O)(=O)/C=C\C#N)cc1,active: 12.6 µM,
Cc1ccccc1OCC1CO1 (stereo unspecified),,inactive: -1.24% [at 1.84 µM]
Nc1c(S(=O)(=O)O)cc(Nc2ccc(Nc3nc(Cl)nc(Nc4ccc(S(=O)(=O)O)cc4)n3)c(S(=O)(=O)O)c2)c2c1C(=O)c1ccccc1C2=O,"inconclusive: 12.6 µM [cytotoxic, partial curve]",
CCCC(=O)N1CCN(c2nc3ccc(F)cc3s2)CC1,"inconclusive: 35.5 µM [cytotoxic, single point]",
CCc1cc(C(=O)Nc2ccccc2)cs1,"inconclusive: 10 µM [cytotoxic, partial curve]",
Cc1cc(=O)n2[nH]c(-c3ccc(Cl)cc3)cc2n1,"inconclusive: 10 µM [cytotoxic, partial curve]",
Cc1nc(SCC(=O)Nc2ccccc2C)cc(-c2ccccc2)n1,"inconclusive: 3.98 µM [cytotoxic, single point]",
COc1c(C)cc(Br)cc1C(=O)Nc1ccc(-c2nc3ncccc3o2)cc1,,inactive: -28.2%
COc1cc(NC(=O)c2ccc3oc(=O)c(S(=O)(=O)c4ccccc4)cc3c2)cc(OC)c1,active: 15.8 µM,
Cc1ccc(-n2ncc3c(NCCO)ncnc32)cc1Cl,,inactive: -15.3%
Cc1ncsc1C(=O)Nc1nc2c(s1)CC(C)CC2 (stereo unspecified),"inconclusive: 15.8 µM [cytotoxic, partial curve]",
COc1ccc(-c2nnc(N(C)C(=O)C3CCCO3)s2)cc1 (stereo unspecified),"inconclusive: 11.2 µM [cytotoxic, partial curve]",
CCC(CC)c1nn2c(=O)cc(COc3ccc(NC(=O)c4ccccc4C)cc3)nc2s1,"inconclusive: 0.794 µM [cytotoxic, full curve, poor fit]",
O=C1CCCC(O)=C1C(C#Cc1ccccc1)C1=C(O)CCCC1=O,"inconclusive: 31.6 µM [cytotoxic, single point]",
Cc1nc2c(c(SCC(=O)Nc3ccccc3C(F)(F)F)n1)CCC2,"inconclusive: 3.16 µM [cytotoxic, full curve]",
Cc1cc2ncc(-c3ccc(Cl)cc3)c(N)n2n1,"inconclusive: 12.6 µM [cytotoxic, partial curve]",
Cn1c(-c2ccc(C(=O)c3ccccc3)s2)nc2ccccc21,"inconclusive: 6.31 µM [cytotoxic, partial curve]",
Cc1nnc(N2CCN(c3ccc(Cl)cc3)CC2)c2c1nnn2Cc1ccc(F)cc1,"inconclusive: 0.004 µM [cytotoxic, full curve, poor fit]",
CCOC(=O)c1sc(NC(=O)CCn2nnc3ccccc32)c(C(=O)OCC)c1C,"inconclusive: 0.631 µM [cytotoxic, partial curve]",
COc1ccc(Nc2cc(C(=O)NCCCN3CCN(C)CC3)c3ccccc3n2)cc1OC,"inconclusive: 12.6 µM [cytotoxic, single point]",
CCCCc1ccc(-c2nc(N)n[nH]2)cc1,"inconclusive: 10 µM [cytotoxic, partial curve]",
Cc1ccc(S(=O)(=O)CNC(=O)c2ccccc2)cc1,"inconclusive: 15.8 µM [cytotoxic, single point]",
COc1ccc(N2CCN(C(=O)c3cc(-c4ccc(C)c(F)c4)on3)CC2)cc1,,inactive: -6.13%
